Source: PubChem BioAssay (NCI)
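Interpolation was linear, between the two tested concentrations surrounding the appropriate level; five concentrations were tested over 48 hours in 96-well plates. Here, GI50 denotes the concentration required for 50% inhibition of growth. At the TGI there is no net growth.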

System: NCI-H322M lung
Assay: NCI-60 cell line screen, 48 h

SMILES | GI50 [µM] | TGI [µM]
Cc1ccc2nc(-c3ccc(-c4nnc(SCC(=O)Nc5ccc(Cl)cc5)o4)cc3)[nH]c2c1 | 9.57 | 23.6
COc1ccc(C(=O)/C=C/c2cccc3ccccc23)cc1S(N)(=O)=O | 2.6 | 9.38
